Measurements taken from the antibiotic and cytotoxicity screens of Wong et al. (2023).
Some of the results follow.

Tested on: S. aureus RN4220
Test: growth inhibition call (relative growth <= 0.2)
Conditions: 50 µM

Growth inhibition call, inactive:
C[C@@H]1CCCCO[C@@H](CN(C)C(=O)c2ccccc2)[C@H](C)CN([C@H](C)CO)C(=O)c2cc(NC(=O)Nc3ccccc3)ccc2O1
CC1=CC=CC2=NC(=O)C[C@](C)(C(=O)O)N12
C[C@@H]1CCCCO[C@@H](CN(C)CC2CCCCC2)[C@H](C)CN([C@@H](C)CO)C(=O)c2cc(NC(=O)C3CCCCC3)ccc2O1
C[C@@H]1CN([C@H](C)CO)C(=O)Cc2cc(NC(=O)Cc3ccccc3)ccc2O[C@@H]1CN(C)Cc1ccc(Cl)c(Cl)c1
C[C@@H]1CN([C@@H](C)CO)C(=O)c2ccccc2-c2ccccc2CO[C@H]1CN(C)C(=O)Nc1cccc(F)c1
Cc1ccc(-c2nc(Nc3cccc(Cl)c3)sc2C)cc1
C=CC[C@@H](CC(=O)NCCO)C(=O)N[C@@H](COC(=O)[C@@H](CC=C)CC(=O)OC(C)(C)C)Cc1ccccc1
C[C@@H]1CN([C@H](C)CO)C(=O)c2cc(NC(=O)Nc3ccccc3)ccc2O[C@H]1CN(C)C(=O)Nc1cccc2ccccc12
O=C(C[C@H]1CC[C@@H](NC(=O)c2cccnc2)[C@@H](CO)O1)NCCN1CCCCC1
Cn1cnc(S(=O)(=O)N2C[C@@H](O)COC[C@@H]3O[C@@H](CC(=O)NC4Cc5ccccc5C4)CC[C@H]32)c1
C[C@@H]1CCCCO[C@@H](CN(C)Cc2ccc(Cl)c(Cl)c2)[C@H](C)CN([C@@H](C)CO)C(=O)c2cc(NC(=O)Nc3ccccc3)ccc2O1
CC(C)NC(=O)Nc1cccc2c1O[C@@H](CN(C)Cc1ccc(-c3ccccc3)cc1)[C@H](C)CN([C@H](C)CO)C2=O
